Assay results: PubChem BioAssay AID1508623 (National Center for Advancing Translational Sciences (NCATS), 2021)
The campaign covered roughly 48,000 compounds. About 450 (0.94%) were called active. Inconclusive results (about 19%) are left out. Calls follow the shape of the dose curve; as a rule, active = well fitted inhibition curve with a large enough effect; inconclusive = small, poorly fitted or top-dose-only effect; inactive = no such curve, though single readings can be large or run the other way. The list shows a part of the results.

Test: Primary qHTS for Identification of Small Molecule Inhibitors of Huntingtin Promoter Activity; also: nearly all actives have a fitted effect of over 50% in size
Settings: HEK293 HTT promoter firefly luciferase reporter (activity 0% = vehicle and -100% = no light), 24 h; series mostly up to 57.5 µM; activity change, negative = inhibition: at the top concentration
Summary of the method: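 Firefly luciferase signal from promoter-reporter HEK293 cells was scaled between vehicle (0%) and zero RLU (-100%). Compounds were tested at final concentrations of up to 57.5 uM over 24 h at 37 degrees C. PTC124 at 50 uM final served as control inhibitor.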

Activity change, negative = inhibition, inactive:
Cc1cc2[nH]c(=O)c(=O)[nH]c2cc1S(=O)(=O)N1CCN(c2ccccc2F)CC1 12%
CCOc1c(N2CCOCC2)cnn(C)c1=O 2.88%
COC(=O)c1c(NC(=O)c2ccc(C(C)(C)C)cc2)sc2c1CCC(C)C2 (configuration not stated) -17.5%
CC[C@@]1(O)C(=O)OCc2c1cc1n(c2=O)Cc2c-1nc1ccccc1c2/C=N/OC(C)(C)C -33.4%
CCN(C(=O)Cn1nc(Cc2ccncc2)c2ccccc2c1=O)c1ccc(OC)cc1 -6.19%
CCOC(=O)c1c(NC(=O)COc2ccccc2)sc(C(C)=O)c1C -8.48%
Clc1ccc(-c2cn3cc(Cc4ccccc4)sc3n2)cc1 -18.2%
CCc1ccc(NC(=O)CNC(=O)Cn2c(C)cc3ccccc3c2=O)cc1 -19.4%
O=C(CSc1nc(=O)n(Cc2ccncc2)c2c1CCC2)Nc1cccc(F)c1 -15.5%
CC1(C)CC(=O)c2cc(-c3nc(-c4ccc(F)cc4)cs3)c(=O)[nH]c2C1 1.58%
CCC(=O)N1c2ccccc2CC1C(=O)NCCN1CCN(c2cc(Cl)ccc2C)CC1 (configuration not stated) -26.4%
Cc1cc(C)cc(OCC(=O)N2CCC(c3nc4ccccc4o3)CC2)c1 -9.81%
COC(=O)c1ccccc1NC(=O)C(Cc1ccccc1)N1Cc2ccccc2C1=O (configuration not stated) -13.3%
COc1ccc(C)cc1NC(=O)Cn1cc(S(=O)(=O)N2CCC(C)CC2)c2ccccc2c1=O -28.4%
CCOc1ccc(NC(=O)c2c(NCc3cc(OC)c(OC)cc3OC)sc3c2CCCC3)cc1 -30.5%
COc1ccc(NC(=O)Cn2c(-c3ccc(F)cc3)cc(C(C)=O)c2C)c(OC)c1 -17.5%
CC(=O)Nc1ccc(S(=O)(=O)NCC2CCC(C(=O)NCCc3ccc(C)cc3)CC2)cc1 (configuration not stated) 5.95%
CC(=O)c1cccc(NC(=O)c2ccc3c(c2)N(Cc2ccc(C)cc2)CCS3)c1 -0.0438%
COc1ccc(CCNC(=O)Cn2c(=O)nc(-c3ccccc3)c3cc(Cl)ccc32)cc1OC -13.3%
N#C/C(=C\c1ccc(F)cc1)c1nc(-c2ccc(-c3ccccc3)cc2)cs1 14.8%
COCCCNc1nc2c(c(=O)[nH]c(=O)n2C)n1CC(O)COc1ccc(Cl)cc1 (configuration not stated) -7.55%
Cc1cc(C)c2c(=O)c3c(oc2c1)C(=O)N(CCCOC(C)C)C3c1ccccc1F (configuration not stated) -20.9%
CCOc1ccc(NC(=O)CSc2nc3c([nH]c4ccccc43)c(=O)n2-c2cc(C)cc(C)c2)cc1 -12.9%
Cc1cccc(N2CCN(C(=O)c3cnc4c(C)cccn4c3=O)CC2C)c1 (configuration not stated) 5.03%
Cc1nc2c(-c3ccccc3)c(C)nn2c(C)c1CCC(=O)NCCc1ccccc1 -31%
NCCc1ccn[nH]1 1.02%
CCOC(=O)c1c(C)oc2c1cc(NS(=O)(=O)c1ccc(C)cc1)c1ccccc12 -20%
